# Test results published in PubChem BioAssay (Tox21).
# Where “and” joins values, the source holds several entries; their conditions need not be identical. Equal entries are not always repeated. Inconclusive means that the source gave no clear call. Such entries were picked first, then a sample of the others. For part of these data: Where the call is inconclusive, the potency comes from a doubtful curve fit. The source holds several records for some structures; these can differ, active in one and inactive in another. Calls of active or inactive are those of the source. Unless noted, calls come from the whole dose curve; as a rule, active = well fitted curve in the direction sought with a large enough effect in the repeat runs; inconclusive = weak or mixed curves; inactive = no such curve, though single readings can be large; an effect the other way counts as inactive or inconclusive.
# Legend:
# [1] = qHTS RealTime-Glo MT Cell Viability Assay in HEK293 cells - 24 hour (AID 1224886); note: nearly all actives have a fitted effect of over 50% in size; note: potency is the fitted concentration of half-maximal effect
# Procedure, shortened: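 Luminescence generated by NanoLuc from substrate produced by living HEK293 cells served as the viability signal. Each value reflects the reading at its stated time point during continuous 40 h compound exposure at 37 C.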
# [2] = qHTS RealTime-Glo MT Cell Viability Assay in HepG2 cells - 0 hour (AID 1224889); note: nearly all actives have a fitted effect of over 50% in size
# Procedure, shortened: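 Tox21 10K library screened in qHTS format on HepG2 cells carrying RealTime-Glo reagents. Compounds were added after a 5 h preincubation, and the luminescent signal from continuous culture was measured repeatedly during 40 h treatment.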
# [3] = A CellTox Green Cytotoxicity Assay to monitor cytotoxicity in HepG2 cells - 8 hour (AID 1224890); note: nearly all actives have a fitted effect of over 45% in size
# Procedure, shortened: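 Cytotoxicity was tracked as dead-cell DNA fluorescence in HepG2 cells treated with test compounds at 37 C; each time-point value comes from one kinetic series spanning 0, 8, 16, 24, 32 and 40 h.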
# [4] = target: Estrogen receptor (Homo sapiens) (UniProt P03372); assay: qHTS assay to identify small molecule antagonists of the estrogen receptor alpha (ER-alpha) signaling pathway using the BG1 cell line in the presence of 0.1 nM 17-beta-estradiol (AID 1259244); note: nearly all actives have a fitted effect of over 50% in size
# Chain of UniProt P03372 (P03372 whole entry, looked up): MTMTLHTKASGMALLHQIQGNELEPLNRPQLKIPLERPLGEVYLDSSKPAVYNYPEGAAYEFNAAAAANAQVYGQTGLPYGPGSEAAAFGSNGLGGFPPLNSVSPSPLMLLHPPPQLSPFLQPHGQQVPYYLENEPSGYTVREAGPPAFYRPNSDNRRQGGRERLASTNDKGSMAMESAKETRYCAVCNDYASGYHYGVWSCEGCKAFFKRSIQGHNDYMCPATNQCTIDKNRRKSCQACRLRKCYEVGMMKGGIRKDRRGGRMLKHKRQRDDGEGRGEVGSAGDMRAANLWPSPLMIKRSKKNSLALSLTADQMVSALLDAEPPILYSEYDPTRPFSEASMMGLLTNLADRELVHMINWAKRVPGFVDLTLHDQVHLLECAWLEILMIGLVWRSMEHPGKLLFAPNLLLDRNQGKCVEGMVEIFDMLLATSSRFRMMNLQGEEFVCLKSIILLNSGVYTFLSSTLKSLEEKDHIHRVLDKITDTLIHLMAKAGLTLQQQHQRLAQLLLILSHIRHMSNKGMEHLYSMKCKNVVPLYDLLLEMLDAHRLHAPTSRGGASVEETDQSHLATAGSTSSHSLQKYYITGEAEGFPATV
# Procedure, shortened: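 Luciferase signal from VM7Luc4E2 ERE-reporter cells, co-dosed with test compound and 0.1 nM final 17beta-estradiol for 22 h, read with ONE-Glo.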
# [5] = qHTS assay to identify small molecule antagonists of the sonic hedgehog signaling (Shh) pathway (AID 1259369; calls by dose curve; note: nearly all actives have a fitted effect of over 45% in size; note: potency is the fitted concentration of half-maximal effect)
# Procedure, shortened: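 Read-out is luminescence from a firefly luciferase gene controlled by the Gli1 response element, in 3T3Gli1-Luc cells pre-incubated 4hr then exposed to compounds and conditioned medium for 24hr.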
# [6] = target: Estrogen receptor beta (Homo sapiens) (UniProt Q92731); assay: qHTS assay to identify small molecule agonists of the estrogen receptor beta (ER-beta) signaling pathway (AID 1259377; active = well fitted activation curve with a large enough effect in the signal ratio in the repeat runs, not every such curve was filed as active; inconclusive = weak or mixed curves, or effect the other way; the % refers to the signal ratio; note: potency is the fitted concentration of half-maximal effect); settings: ER-beta-UAS-bla HEK293T, beta-lactamase FRET ratio, 16 h; series mostly up to 92.4 µM
# Chain of UniProt Q92731 (Q92731 whole entry, looked up): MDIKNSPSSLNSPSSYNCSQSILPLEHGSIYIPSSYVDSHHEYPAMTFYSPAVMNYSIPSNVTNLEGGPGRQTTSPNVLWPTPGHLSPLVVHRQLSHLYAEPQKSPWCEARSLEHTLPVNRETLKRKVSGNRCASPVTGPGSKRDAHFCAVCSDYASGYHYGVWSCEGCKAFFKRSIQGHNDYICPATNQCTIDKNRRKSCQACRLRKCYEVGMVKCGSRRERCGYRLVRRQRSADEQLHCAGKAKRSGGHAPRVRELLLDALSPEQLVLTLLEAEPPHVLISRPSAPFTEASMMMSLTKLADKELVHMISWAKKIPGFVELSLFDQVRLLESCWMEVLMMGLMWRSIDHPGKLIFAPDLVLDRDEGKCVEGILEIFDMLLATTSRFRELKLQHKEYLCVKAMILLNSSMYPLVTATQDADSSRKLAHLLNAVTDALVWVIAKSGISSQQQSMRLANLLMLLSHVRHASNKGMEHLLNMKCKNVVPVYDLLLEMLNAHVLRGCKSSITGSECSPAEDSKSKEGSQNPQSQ
# Procedure, shortened: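 Ratiometric beta-lactamase FRET read-out came after 2 h substrate loading at room temperature. It followed 16 h compound treatment at 37C of GripTite HEK293T cells carrying a UAS-bla reporter, plated in 2% charcoal-stripped FBS medium.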
# [7] = qHTS RealTime-Glo MT Cell Viability Assay in HEK293 cells - 8 hour (AID 1224887); note: potency is the fitted concentration of half-maximal effect; nearly all actives have a fitted effect of over 50% in size
# Procedure, shortened: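 Kinetic, non-lysing viability readout. Seed HEK293 (600/well) with reagent, incubate 5 h at 37 C/5% CO2, pin 23 nL compound in DMSO, incubate at 37 C, read luminescence at 0, 8, 16, 24, 32, 40 h.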
# [8] = qHTS assay to identify small molecule antagonists of the androgen receptor (AR) signaling pathway using the MDA cell line in the presence of 0.5 nM R1881 - cell viability counter screen (AID 1259242); note: nearly all actives have a fitted effect of over 45% in size; note: potency is the fitted concentration of half-maximal effect
# Procedure, shortened: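 Cells seeded at 3,000/well and allowed 5 hr at 37C, 0% CO2 before compound transfer and R1881 (0.5 nM final) addition; 16 hr later, live-cell protease fluorescence indicated cytotoxicity.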
# [9] = qHTS assay to identify small molecule agonists of the sonic hedgehog signaling (Shh) pathway - cell viability counter screen (AID 1259366); note: nearly all actives have a fitted effect of over 50% in size; note: potency is the fitted concentration of half-maximal effect
# Procedure, shortened: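 Cytotoxicity counter screen: CellTiter-Fluor reagent added after 23 h compound exposure, then 1 h at 37C and fluorescence read. Cells were 3T3 Gli1-Luc, seeded 2,000 per well and dosed 4 h post-plating.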
# [10] = qHTS assay to identify small molecule antagonists of the sonic hedgehog signaling (Shh) pathway - cell viability counter screen (AID 1259367); note: nearly all actives have a fitted effect of over 55% in size; note: potency is the fitted concentration of half-maximal effect
# Procedure, shortened: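 Viability was read by CellTiter-Fluor fluorescence in the same wells, reagent added 23 hr into compound treatment and incubated 1 hr at 37C. The 3T3 Gli1-Luc reporter cells (2,000/well) received conditioned medium after compound and ran 24 hr.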
# [11] = qHTS assay to identify small molecule HDAC inhibitors (AID 1259364);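 note: wild-type HCT-116 cells with endogenous class I/II HDAC activity; potency is the fitted concentration of half-maximal effect; nearly all actives have a fitted effect of over 45% in size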
# Procedure, shortened: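 HCT-116 wt cells, 1,500/well, overnight attach. Compounds (DMSO) 2 h, 37 °C. HDAC-Glo I/II, 30 min RT. Luminescence.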
# [12] = target: Androgen receptor (Homo sapiens) (UniProt P10275); assay: qHTS assay to identify small molecule antagonists of the androgen receptor (AR) signaling pathway using the MDA cell line in the presence of 0.5 nM R1881 (AID 1259243); note: nearly all actives have a fitted effect of over 50% in size; note: potency is the fitted concentration of half-maximal effect
# Chain of UniProt P10275 (P10275 whole entry, looked up): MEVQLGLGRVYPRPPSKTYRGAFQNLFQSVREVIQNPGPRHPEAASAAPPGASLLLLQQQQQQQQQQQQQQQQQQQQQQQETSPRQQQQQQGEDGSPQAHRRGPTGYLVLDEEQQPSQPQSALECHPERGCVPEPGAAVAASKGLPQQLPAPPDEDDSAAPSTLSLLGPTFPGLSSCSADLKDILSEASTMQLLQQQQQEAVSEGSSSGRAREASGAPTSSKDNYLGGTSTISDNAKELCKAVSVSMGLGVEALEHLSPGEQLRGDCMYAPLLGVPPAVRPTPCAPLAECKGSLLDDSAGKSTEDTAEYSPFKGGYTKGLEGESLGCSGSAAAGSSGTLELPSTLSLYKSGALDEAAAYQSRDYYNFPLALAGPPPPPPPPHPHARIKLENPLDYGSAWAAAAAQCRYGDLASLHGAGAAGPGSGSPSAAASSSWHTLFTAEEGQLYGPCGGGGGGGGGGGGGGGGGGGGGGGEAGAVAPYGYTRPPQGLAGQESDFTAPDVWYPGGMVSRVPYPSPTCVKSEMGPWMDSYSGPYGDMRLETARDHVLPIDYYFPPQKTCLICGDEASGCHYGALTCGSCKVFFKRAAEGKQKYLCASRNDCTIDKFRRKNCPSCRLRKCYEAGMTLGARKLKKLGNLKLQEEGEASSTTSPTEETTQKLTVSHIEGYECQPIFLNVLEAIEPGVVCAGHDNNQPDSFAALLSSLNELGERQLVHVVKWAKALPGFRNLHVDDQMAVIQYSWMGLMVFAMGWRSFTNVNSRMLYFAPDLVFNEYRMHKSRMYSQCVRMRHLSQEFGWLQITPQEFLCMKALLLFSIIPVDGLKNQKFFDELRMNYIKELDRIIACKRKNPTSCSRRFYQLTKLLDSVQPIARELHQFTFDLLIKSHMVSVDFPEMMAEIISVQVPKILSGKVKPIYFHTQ
# Procedure, shortened: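 Luminescence from an AR/GR-responsive MMTV-luciferase construct in MDA-kb2 breast carcinoma cells, read 30 min after ONE-Glo, following 16 hr co-treatment with compounds and 0.5 nM R1881.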
# [13] = qHTS assay to identify small molecule phospholipidosis (PLD) inducers (AID 1259344; active = well fitted curve in the direction sought with a large enough effect; inconclusive = small, poorly fitted or top-dose-only effect, or another doubt; inactive = no such curve, though single readings can be large; an effect the other way counts as inactive or inconclusive; note: potency is the fitted concentration of half-maximal effect)
# Procedure, shortened: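 Phospholipid accumulation was scored by imaging: fixed, Hoechst-counterstained HepG2 cells stained with LipidTOX Red after 24 h compound exposure at 37 C. Read-outs were pit count and pit intensity per well or per cell, with amiodarone and DMSO controls.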
# Tags give direction and shape of the fitted curve or compound fluorescence and quenching.
structure (smiles),measurement,setting,value
O=C(O)c1cccc(Oc2ccccc2)c1,Potency,[1],inactive
same,Potency,[2],inactive
same,Potency,[3],inactive
CCCCOC(=O)CO,Potency,[1],inactive
same,Potency,[3],inactive
same,Potency,[4],inactive
same,Potency,[5],inactive
same,Potency,[6],inactive
CC(C)Cc1ccc(C(C)C(=O)OCc2ccccn2)cc1 (stereo not given),Potency,[1],"inconclusive: 21.3 µM [cytotoxic, partial curve]"
same,Potency,[7],"inconclusive: 21.3 µM [cytotoxic, partial curve]"
same,Potency,[5],"inconclusive: 13.3 µM [inhibitor, single point]"
Cn1c(=O)c2c(ncn2C)n(C)c1=O,Potency,[1],"inconclusive: 17.6 µM [rising, partial curve]"
same,Potency,[8],"inconclusive: 55.1 µM [cytotoxic, partial curve]"
same,Potency,[9],"inconclusive: 69.4 µM [cytotoxic, single point]"
same,Potency,[10],active: 55.1 µM
same,Potency,[5],active: 17.4 µM
CCCC(=O)OC(=O)CCC,Potency,[1],inactive
same,Potency,[11],"inconclusive: 62.3 µM [inhibitor, partial curve, poor fit]"
same,Potency,[9],inactive
same,Potency,[10],inactive
CC(C)=CCO,Potency,[1],inactive
same,Potency,[5],"inconclusive: 24.9 µM [inhibitor, partial curve, poor fit]"
Cc1ccc(S(=O)(=O)NC2CCCCC2)cc1,Potency,[1],"inconclusive: 34.4 µM [cytotoxic, partial curve, poor fit]"
same,Potency,[5],"inconclusive: 19.2 µM [inhibitor, partial curve]"
O=[N+]([O-])C(CO)(CO)CO,Potency,[1],"inconclusive: 49 µM [rising, partial curve, poor fit]"
same,Potency,[9],active: 30.2 µM and active: 48.6 µM
same,Potency,[10],active: 0.214 µM
same,Potency,[5],"active: 151 nM and inconclusive: 17.2 µM [inhibitor, full curve]"
CC(=O)NCCO,Potency,[1],inactive
same,Potency,[8],inactive
C[C@]12CC[C@@H]3c4ccc(O)cc4CC[C@H]3[C@@H]1CC[C@@H]2O,Potency,[1],"active: 19.5 µM and inconclusive: 21.9 µM [cytotoxic, partial curve]"
same,Potency,[5],active: 3.06 µM and active: 5.45 µM
Nc1nc2ccc(OC(F)(F)F)cc2s1,Potency,[1],"inconclusive: 26.8 µM [cytotoxic, single point]"
same,Potency,[5],inactive
same,Potency,[6],inactive
O=C(O)/C=C/c1ccc(/C=C/C(=O)O)cc1,Potency,[1],inactive
same,Potency,[12],inactive
O=C(O)c1cccc(C(F)(F)F)c1,Potency,[1],inactive
same,Potency,[5],inactive
C=CC(=O)OCCOC(=O)C=C,Potency,[1],active: 43.6 µM
same,Potency,[12],"inconclusive: 68.6 µM [inhibitor, single point]"
OCCCCCCCCCCCCBr,Potency,[1],"inconclusive: 7.02 µM [cytotoxic, full curve]"
same,Potency,[5],"inconclusive: 15.6 µM [inhibitor, full curve, poor fit]"
CCOC(=O)N1CCC(Nc2ccc(Cl)cc2N)CC1,Potency,[1],"inconclusive: 26.8 µM [cytotoxic, partial curve, poor fit]"
same,Potency,[12],inconclusive: 33.5 µM [inhibitor]
same,Potency,[9],"inconclusive: 6.68 µM [cytotoxic, full curve]"
S=C([S-])NCCNC(=S)[S-].S=C([S-])NCCNC(=S)[S-].[Mn+2].[Zn+2],Potency,[1],"inconclusive: 23.9 µM [rising, partial curve]"
same,Potency,[9],"inconclusive: 1.88 µM [rising, full curve]"
same,Potency,[5],"inconclusive: 29.8 µM [inhibitor, single point]"
CC(C)=CCOc1ccc(/C=C/C(=O)c2ccc(OCC=C(C)C)cc2OCC(=O)O)cc1,Potency,[1],inactive
same,Potency,[6],"inconclusive: 15 µM [rising, partial curve]"
CC(C)NCC(O)c1ccc(O)c(O)c1 (stereo not given),Potency,[1],"inconclusive: 54.9 µM [cytotoxic, single point]"
same,Potency,[9],inconclusive: 61.1 µM [cytotoxic]
same,Potency,[5],"inconclusive: 2.4 µM [inhibitor, partial curve, poor fit] and inconclusive: 16.8 µM [inhibitor, partial curve]"
C/C=C(C)/C=C/C=C(C)C,Potency,[1],"inconclusive: 19.3 µM [rising, single point]"
same,Potency,[9],inactive
same,Potency,[5],"inconclusive: 24 µM [inhibitor, full curve]"
C(=C\c1ccccc1)/CN1CCN(C(c2ccccc2)c2ccccc2)CC1,Potency,[1],"inconclusive: 26.8 µM [cytotoxic, single point]"
same,Potency,[13],"inconclusive: 12.6 µM [activator, partial curve, poor fit]"
same,Potency,[5],"inconclusive: 23.7 µM [inhibitor, partial curve, poor fit]"
